About 20 (0.02%) of roughly 94,000 compounds were called active. The inconclusive results got no clear call from the source; some entries with a clear call stand among them for comparison. The call rests on the fitted dose curve; in most records, active means well fitted activation curve with a large enough effect; inconclusive means small, poorly fitted or top-dose-only effect; inactive means flat fitted curve, though single readings scatter. Potencies of inconclusive entries are left out as doubtful fits.
experiment: qHTS of alpha-syn Inhibitors: NCGC Sytravon Library Screen; on growth rescue (activation): 0% is about no effect; settings: S. cerevisiae alpha-synuclein toxicity rescue, BacTiter-Glo growth, 24 h; growth rescue (activation): at 46.1 µM (top of the series)
In short: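 Growth restoration measured by BacTiter-Glo luminescence after 24 hr at 30 deg C; alpha-synuclein yeast, raffinose-pregrown to mid-log, were added at OD600=0.02 in galactose medium onto pinned compounds.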
Potency means the concentration at half of the fitted maximal effect; tags describe the fitted curve by direction and shape.

Structure (SMILES) | Potency | growth rescue (activation)
COc1ccc(NC(=O)CN2C(=O)CC(c3ccc(C)c(C)c3)=Nc3ccccc32)cc1OC | inactive | –
O=c1[nH]nc(SCCS(=O)(=O)c2ccc(F)cc2)n1-c1ccccc1C(F)(F)F | inactive | –
CCc1ccccc1NC(=O)CSc1nncn2c1cc1oc(C)cc12 | inconclusive [activator, single point] | –
COc1ccc(NC(=O)c2c(NCc3cccs3)sc3c2CCC(C)C3)c(OC)c1 (stereo unspecified) | inconclusive [activator, single point] | –
CC(=O)N1c2ccccc2C(=O)C1N1CCN(c2ccccc2F)CC1 (stereo unspecified) | inconclusive [activator, single point] | –
CCc1ccc(NC(=O)c2cc(S(=O)(=O)NC3CCCCCC3)ccc2F)cc1 | inconclusive [activator, single point] | –
O=C(Nc1cc(Cl)cc(Cl)c1)c1cc(S(=O)(=O)NC2CCCC2)ccc1F | inconclusive [activator, single point] | –
COc1cc(S(=O)(=O)NCCc2c(C)[nH]c3ccc(C)cc23)ccc1Br | inconclusive [activator, single point] | –
Nc1ncc(S(=O)(=O)NCc2ccccc2)cn1 | inconclusive [activator, single point] | –
COc1cccc(-n2c(SCc3cccc(C)c3)nc3c([nH]c4ccccc43)c2=O)c1 | inconclusive [activator, partial curve] | –
CCOCc1cc(CN2CCN(c3cccc(C(F)(F)F)c3)CC2)c(O)c2ncccc12 | inconclusive [activator, single point] | –
CCc1ccc(OCC(=O)N(Cc2ccc(C(C)C)cc2)C2CCS(=O)(=O)C2)cc1 (stereo unspecified) | inconclusive [activator, single point] | –
CCc1ccc(NC(=O)CC2C(=O)N(c3cccc(C)c3)C(=O)N2Cc2ccc(F)cc2)cc1 (stereo unspecified) | inconclusive [activator, single point] | –
CC1CCN(S(=O)(=O)c2ccc3c(c2)CCN3C(=O)Nc2ccccc2Br)CC1 | inactive | –
Cc1cccc(N2CCN(C(=O)CS(=O)(=O)Cc3nc(-c4ccccc4C)oc3C)CC2C)c1 (stereo unspecified) | inconclusive [activator, single point] | –
COc1cccc(N2CCN(C(=O)c3nn(C)c4c3CSc3ccc(C)cc3-4)CC2)c1 | inactive | –
O=C(CSCc1ccc(F)cc1)N1CCc2c([nH]c3ccccc23)C1c1ccc(Cl)cc1 (stereo unspecified) | inconclusive [activator, single point] | –
CCOc1ccc2nc(N3CCN(C(=O)CS(=O)(=O)c4ccc(F)cc4)CC3)sc2c1 | inconclusive [activator, single point] | –
Cc1cc(C)cc(-n2cnc3cc(C(=O)NCCc4ccccc4)ccc32)c1 | inactive | –
COc1ccc2nc(N(Cc3cccnc3)C(=O)CCc3ccccc3)sc2c1 | inconclusive [activator, single point] | –
CCOC(=O)CC(NC(=O)CCc1c(C)nc2c(c(C)nn2-c2ccc(C)c(C)c2)c1C)c1ccc(C)cc1 (stereo unspecified) | inconclusive [activator, single point] | –
COc1ccccc1C(=O)Oc1c(Sc2ccccc2)c(C)nn1C(C)(C)C | inactive | –

Structure (SMILES) | Potency | growth rescue (activation)
COc1ccc(C(=O)NC(=S)NNC(=O)COc2ccccc2)cc1 | – | inconclusive: 30.2% [activator]
O=C(Nc1cc(Cl)cc(Cl)c1)c1ccc(F)c(S(=O)(=O)N2CCc3ccccc32)c1 | inactive | –
O=C(Cc1ccccc1)N(Cc1cccnc1)c1nc2c(F)cc(F)cc2s1 | inconclusive [activator, single point] | –
CCc1ccc(OC(C)c2nc(-c3ccc(-n4cccc4)cc3)no2)cc1 (stereo unspecified) | inactive | –
CCCCn1nc(NC(=O)c2cccc(Cl)c2)c2cc3cccc(C)c3nc21 | inactive | –
CC(C)(C)OC(=O)N1CCC(c2c(C(=O)NCc3cccc(Cl)c3)cnn2-c2ccc(F)cc2)CC1 | inconclusive [activator, single point] | –
Cc1cccc2sc(N(Cc3cccnc3)C(=O)CCc3ccccc3)nc12 | inactive | –
COc1cccc(OCc2nc3ccccc3n2CCOc2ccc(C)cc2)c1 | inconclusive [activator, single point] | –
Cc1ccc(C(C)C)c(OCCSc2nc(-c3ccccc3F)nc3cc(=O)[nH]n23)c1 | inactive | –
Cc1ccc(CCNS(=O)(=O)c2cc(-c3cc(C)no3)ccc2C)cc1 | inconclusive [activator, single point] | –
COCCN(Cc1cccs1)S(=O)(=O)c1cc(-c2cc(C)no2)ccc1C | – | inconclusive: -60.1% [activator]
COCCNC(=O)c1c(NC(=O)Cc2coc3cc(C)ccc23)sc2c1CCCC2 | inconclusive [activator, single point] | –
CCN(CCCNC(=O)c1cc2cc3cc(C)ccc3nc2s1)c1cccc(C)c1 | inactive | –
COc1cccc(OCc2nc3ccccc3n2CCOc2ccccc2)c1 | inconclusive [activator, single point] | –
COc1ccc(-c2ccc(NS(=O)(=O)c3ccc(F)c(C(F)(F)F)c3)cc2)nn1 | inconclusive [activator, single point] | –
CCN1CCN(c2ccc(NS(=O)(=O)c3c(C)nc4sccn4c3=O)cc2Cl)CC1 | inconclusive [activator, single point] | –
CCOc1ccc(-n2c(C)nc3cc(C(=O)NCCC4=CCCCC4)ccc32)cc1 | inconclusive [activator, single point] | –
COc1ccc(C(=O)CC2(O)C(=O)N(Cc3ccccc3Cl)c3ccccc32)cc1 (stereo unspecified) | inconclusive [activator, single point] | –
Cc1c(/C=C(\C#N)C(=O)Nc2cccc(Cl)c2)c2ccccc2n1Cc1ccccc1Cl | inactive | –
Cc1ccc(NC(=O)/C(C#N)=C/c2ccc(C)o2)cc1 | inactive | –
Cc1cccc(CSc2cn(CC(=O)N3CCCCC3)c3ccccc23)c1 | inactive | –
CC(C)OCCCNC(=O)CCCn1c(SCC(=O)c2ccc(F)cc2)nc2c(sc3ccccc32)c1=O | inconclusive [activator, single point] | –

Structure (SMILES) | Potency | growth rescue (activation)
CC(=O)c1cccc(-n2c(CCC(=O)O)ccc2-c2ccccc2)c1 | inconclusive [activator, single point] | –
COc1ccc(-n2c(=O)c3c4c(sc3n(Cc3ccccc3)c2=O)CCC4)c(OC)c1 | – | inconclusive: 30.3% [activator]
Cc1cccc(OC(C)C(=O)N2CCC(c3nc4ccccc4o3)CC2)c1C (stereo unspecified) | inconclusive [activator, single point] | –
COc1ccccc1-c1cc(C(=O)Nc2c(C)nn(Cc3ccc(Cl)cc3)c2C)no1 | inactive | –
Cc1ccc2c(CC(=O)Nc3ccc(S(=O)(=O)N4CCC(C)CC4)cc3)coc2c1 | inconclusive [activator, partial curve] | –
COc1cccc(OCc2nc3ccccc3n2Cc2ccccc2)c1 | inconclusive [activator, single point] | –
COc1ccc(CC(=O)NC(C)CCc2ccccc2)cc1 (stereo unspecified) | inactive | –
O=C(NC1CCCC1)c1ccc2c(c1)N(Cc1c(F)cccc1Cl)C(=O)c1ccccc1S2 | inconclusive [activator, single point] | –
C[C@H](CO)N1C[C@H](C)[C@@H](CN(C)S(=O)(=O)c2ccc(Oc3ccccc3)cc2)OCc2cnnn2CCCC1=O | inactive | –
Cc1cc([N+](=O)[O-])cc(/C=N\NC(=O)C2COc3ccccc3O2)c1O (stereo unspecified) | – | inconclusive: 78.4% [activator]
COc1cccc(C2C=C(c3ccc(C)cc3)Nc3c(C(=O)Nc4ccc(F)cc4)cnn32)c1OC (stereo unspecified) | inconclusive [activator, single point] | –
COc1cc2c(cc1OC)C(C)N(C(=O)c1cccc([N+](=O)[O-])c1)CC2 (stereo unspecified) | – | inconclusive: 129% [activator]
CSc1ccc(CCNS(=O)(=O)c2cc(-c3cc(C)no3)ccc2C)cc1 | inconclusive [activator, single point] | –
COc1cc(OC)c(NC(=O)c2nn(C)c3c2COc2ccccc2-3)cc1Cl | inactive | –
O=C(O)c1cc(Cl)ccc1-c1ccc(/C=C/c2cc(C(F)(F)F)[nH]c(=O)n2)o1 | inactive | –
CCOC(=O)c1c(Nc2ccc(OCC)cc2)nnc(-c2ccccc2)c1-c1ccccc1 | inactive | –
CCOc1ccccc1NC(=O)C1CCCN1S(=O)(=O)c1ccc2nc(-c3ccccc3)[nH]c2c1 (stereo unspecified) | inconclusive [activator, single point] | –
CCOc1ccc(S(=O)(=O)Nc2ccc3oc4c(c3c2)CC(C)CC4)cc1 (stereo unspecified) | inconclusive [activator, single point] | –
CC(C)OCc1cc(CN2CCN(c3cccc(C(F)(F)F)c3)CC2)c(O)c2ncccc12 | inconclusive [activator, single point] | –
CCc1nn2c(=O)c(S(=O)(=O)Nc3ccc(C(C)C)cc3)c(C)nc2s1 | inconclusive [activator, single point] | –
Cc1ccc2occ(CC(=O)Nc3ccc(S(=O)(=O)N4CCC(C)CC4)cc3)c2c1 | – | inconclusive: 32.2% [activator]
Cc1ccc(CN(C(=O)COc2cc(C)c(Cl)c(C)c2)c2ccccn2)o1 | inconclusive [activator, single point] | –
